Experimental data taken from publication PMC4336329 (PLoS ONE, 2015).
Screen size: about 310,000 compounds; about 2,200 (0.71%) showed an effect of 50% or more. The effect is printed as a negative number. Some of the results follow.

Molecular target: human ether-à-go-go-related gene (hERG) potassium channel (human, UniProt Q12809)
Assay: primary screen, population patch clamp on CHO cells stably expressing hERG

human ether-à-go-go-related gene (hERG) potassium channel, sequence (Q12809 whole entry, looked up): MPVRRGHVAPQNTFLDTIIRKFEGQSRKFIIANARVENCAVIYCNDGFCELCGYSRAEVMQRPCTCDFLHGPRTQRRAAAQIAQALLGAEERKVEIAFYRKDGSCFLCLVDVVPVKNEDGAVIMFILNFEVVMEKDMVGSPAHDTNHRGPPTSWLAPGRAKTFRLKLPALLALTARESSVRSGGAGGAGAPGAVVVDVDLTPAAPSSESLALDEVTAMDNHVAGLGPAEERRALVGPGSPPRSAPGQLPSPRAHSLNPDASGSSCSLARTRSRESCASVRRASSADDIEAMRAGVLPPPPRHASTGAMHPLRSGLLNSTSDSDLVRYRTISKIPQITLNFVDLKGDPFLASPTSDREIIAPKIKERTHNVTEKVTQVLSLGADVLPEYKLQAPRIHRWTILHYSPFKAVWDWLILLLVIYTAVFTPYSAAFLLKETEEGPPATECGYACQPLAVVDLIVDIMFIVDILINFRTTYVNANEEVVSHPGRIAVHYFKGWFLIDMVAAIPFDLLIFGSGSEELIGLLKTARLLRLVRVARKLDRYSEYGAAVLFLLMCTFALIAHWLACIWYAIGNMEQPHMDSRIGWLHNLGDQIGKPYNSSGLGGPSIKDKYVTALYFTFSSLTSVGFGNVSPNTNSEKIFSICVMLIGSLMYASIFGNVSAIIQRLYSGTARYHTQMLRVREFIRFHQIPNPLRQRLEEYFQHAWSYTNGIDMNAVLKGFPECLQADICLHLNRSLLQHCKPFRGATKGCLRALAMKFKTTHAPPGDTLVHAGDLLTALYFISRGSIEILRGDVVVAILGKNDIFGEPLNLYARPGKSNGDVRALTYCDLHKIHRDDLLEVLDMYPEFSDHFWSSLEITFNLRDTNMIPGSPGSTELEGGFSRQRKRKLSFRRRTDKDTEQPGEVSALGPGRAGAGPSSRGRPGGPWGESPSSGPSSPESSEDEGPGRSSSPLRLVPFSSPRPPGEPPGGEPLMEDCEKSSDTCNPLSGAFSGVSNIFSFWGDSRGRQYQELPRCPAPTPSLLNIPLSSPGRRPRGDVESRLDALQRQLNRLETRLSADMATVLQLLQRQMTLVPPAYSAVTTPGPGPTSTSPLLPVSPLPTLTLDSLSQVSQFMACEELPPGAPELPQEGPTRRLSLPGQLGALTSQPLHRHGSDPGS

SMILES	hERG current change (%, negative = inhibition) at 1uM
FC(F)(F)c1cnc(Sc2nnc(-c3cccs3)n2CC2CCCO2)c(Cl)c1 (centres unmarked)	-4.86%
O=C(O)c1cccc2[nH]c(C(F)(F)F)nc12	6.71%
O=C(c1ccccc1)n1ccc2ccccc21	6.43%
O=C1c2ccccc2CN1CCNS(=O)(=O)c1ccc(Cl)cc1	5.79%
O=C(Nc1ccc(Cl)cc1)N1CCC(c2nc(-c3ccccc3Cl)no2)CC1	8.37%
CCN(Cc1ccccc1)C(=O)C1CCN(Cc2ccc(OC)c(OC)c2OC)CC1.O=C(O)C(=O)O	-13%
CCOc1ccc(/C=N/NC(=O)C(C)N(c2ccc(OC)cc2)S(C)(=O)=O)cc1OCC (centres unmarked)	3.34%
N#C/C(=C(/O)c1ccc(S(=O)(=O)N(CCCl)CCCl)cc1)c1nc2ccccc2[nH]1	14.7%
CC(NC(=O)c1ccco1)C(=O)N1CCCCC1 (centres unmarked)	-0.698%
COCCNC(=O)c1cc2nc(-c3ccccc3)cc(C)n2n1	14.8%
CC1CCCCC1NC(=O)/C(C#N)=C/c1ccc(F)c(F)c1 (centres unmarked)	-1.92%
Cc1[nH]c2ccccc2c1/C=C(\C#N)S(=O)(=O)c1ccccc1	7.54%
O=C(CCCN1C(=O)c2ccccc2C1=O)NCc1ccco1	10.9%
Cc1ccc([N+](=O)[O-])cc1N	17.5%
CCOc1ccccc1NC(=O)CCS(=O)(=O)c1cccc2nonc12	2.2%
O=C(NCc1ccccc1)c1noc2c1CCCCC2	1.5%
O=C(Nc1ccc(Cl)cn1)C1CCN(c2ncnc3c2nc2n3CCCCC2)CC1	-0.595%
COc1ccc(S(=O)(=O)N2CCN(CC(=O)Nc3cc(C(F)(F)F)ccc3Cl)CC2)cc1	2.29%
[O-][N+]12CC[N+]([O-])(CC1)c1ccccc12	4.27%

SMILES	hERG current change (%, negative = inhibition) at 1uM
Cc1cc(C)cc(N(CC(=O)NC(C)(C)C)C(=O)CCC(=O)Nc2nccs2)c1	8.88%
Cc1cccc(N(C(=O)Cc2cccs2)C(C(=O)NC2CCCC2)c2ccncc2)c1 (centres unmarked)	11.2%
NC1=NC(=O)/C(=C\c2ccc(-c3ccc(Cl)cc3)o2)S1	10.1%
O=C(Cn1c(=O)oc2ccccc21)Nc1nc(-c2ccc(Br)cc2)cs1	-9.32%
O=C(NCc1ccncc1)/C(=C\c1ccc(F)cc1)NC(=O)c1ccccc1	-52.3%
CC(C(=O)N1CCN(C(=O)c2ccco2)CC1)n1sc2ccccc2c1=O (centres unmarked)	5.54%
CCc1ccc(/C=N\NC(=O)c2ccc(Br)o2)s1	1.9%
CCOC(=O)c1cnc(SC)nc1Oc1cccc(NS(=O)(=O)c2ccc(F)cc2)c1	-16%
Cc1ccc(C)c2[nH]c(=O)c(CN(Cc3ccco3)C(=S)NCC3CCCO3)cc12 (centres unmarked)	7.45%
COC(=O)c1ccc(OCCCCN2CC(C)OC(C)C2)cc1.O=C(O)C(=O)O (centres unmarked)	2.55%
O=C(N/N=C\c1ccc(-c2ccccc2[N+](=O)[O-])o1)C1COc2cc3ccccc3cc2O1 (centres unmarked)	-9.75%
CCCNC(=O)/C(=C/c1cn(S(=O)(=O)N(C)C)c2ccccc12)NC(=O)c1ccc(OC)cc1	7.96%
CCOC(=O)C1(Cc2ccccc2)CCN(Cc2ccon2)CC1	6.27%
O=S(=O)(/N=C(/Nc1cccc2ccccc12)c1ccccc1)c1cccs1	15.4%
COc1cccc(-c2nn(-c3ccc(F)cc3)cc2C(=O)NCC2CCCO2)c1 (centres unmarked)	-23%
CCCCCCNc1nc(-c2ccc(OC)cc2)c(CCC(=O)O)s1	4.21%
Nc1nonc1C(=O)OCC(=O)c1ccc(Cl)cc1	7.59%
Cn1cnnc1SCC(=O)N1CCC(Cc2ccccc2)CC1	-3.72%
O=C1OC2(CCCCC2)OC(=O)C1=CNc1nccs1	14%

SMILES	hERG current change (%, negative = inhibition) at 1uM
Cc1cc(-c2ccccc2)nc(N/N=C/c2ccc(N(C)C)cc2)n1	11.8%
N#CC1=C(N)Oc2cc3c(cc2C1c1ccc(Cl)cc1)OCO3 (centres unmarked)	9.88%
CC(=O)NC(Cc1ccccc1)c1ccc2c(c1)OCCCO2 (centres unmarked)	-2.5%
Cc1ccc(-n2c3c(c(=O)[nH]c2=O)C(C(F)(F)F)(C(F)(F)F)NC(=O)N3)cc1	15.3%
CCNC(=O)COC(=O)c1ccc(NS(=O)(=O)c2ccc3c(c2)OCCO3)cc1	19.5%
CC(=O)C1C(c2ccc(Br)cc2)c2c(noc2C)CC1(C)O (centres unmarked)	9.06%
O=S(=O)(NCc1ccccc1Br)c1ccccc1Br	13.1%
O=C(Cn1cc([N+](=O)[O-])cn1)Nc1ccn(Cc2c(F)c(F)c(F)c(F)c2F)n1	-17.8%
COc1ccc(Br)cc1S(=O)(=O)N1CCCC1	6.06%
CC(=O)c1cccc(Nc2nc(-c3sc(C)nc3C)cs2)c1	14.1%
CC(=O)c1cccc(NC(=O)N2CCCC(C(=O)c3cc(F)ccc3F)C2)c1 (centres unmarked)	6.28%
O=C1C2=C(SCCS2)C(=O)N1c1ccccc1	20.6%
O=C(COC(=O)COc1ccccc1[N+](=O)[O-])Nc1ccc(S(=O)(=O)N2CCCCC2)cc1	2.87%
C[C@@H]1C=C(C(=O)NCc2nc3ccccc3[nH]2)O[C@H](OCc2ccc(CO)cc2)C1	4.23%
O=C(Nc1cccc(C(=O)O)c1)/C(=C\c1ccc2c(c1)OCO2)NC(=O)c1ccc(Br)cc1	20.3%
C=CCSc1nsc(N)n1	15.2%
CCS(=O)(=O)c1nc2ccccc2n1Cc1ccccn1	10.1%
CC(=O)N1CCN(c2ccccc2NC(=O)COc2cc(C)ccc2C(C)C)CC1	-0.11%
